Source: PubChem BioAssay AID1508642 (National Center for Advancing Translational Sciences (NCATS), 2021)
Out of some 43,000 compounds screened, about 200 (0.47%) were called active. Not shown: some 12% with an inconclusive outcome. Calls follow the shape of the dose curve; as a rule, active = well fitted cell-killing curve with a large enough effect; inconclusive = small, poorly fitted or top-dose-only effect, or effect the other way; inactive = flat fitted curve, though single readings scatter. Some of the results follow.

Experiment: Cell viability qHTS assay in S16 Pmp22-F2sN cells; also: nearly all actives have a fitted effect of over 65% in size
Details: S16 Pmp22-F2sN Schwann cells (luciferase reporters placed in the Pmp22 gene) viability, CellTiter-Glo, 24 h; series mostly up to 57.5 µM; activity change, negative = cytotoxicity: at the top concentration
Method in brief: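 Rat S16 Schwann reporter line, 24 h treatment with library compounds delivered at 23 nL per well. Cell viability by CellTiter-Glo luminescence.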
% is scaled to controls: 0 for no effect and ±100 for the full control effect.

SMILES	activity change, negative = cytotoxicity
CCCSc1nnc2c(n1)OC(c1ccc(Br)s1)Nc1ccccc1-2 (centres undefined)	inactive: 1.79%
COC(=O)c1sc2ncccc2c1-n1c(C)ccc1C	inactive: 2.79%
COc1ccccc1CNS(=O)(=O)c1ccc2c(c1)CC(=O)N2C	inactive: 2.33%
CCOC(=O)N1CCN(C(=O)c2c(C)nn(-c3cccc(C)c3)c2-n2cccc2)CC1	inactive: -5.94%
Cc1ccc(C)c(N2CCN(C(=O)CCS(=O)(=O)c3cc4c(cc3Cl)NC(=O)CO4)CC2)c1	inactive: -6.32%
CCC1CCCCN1CCCNC(=O)CN1C(=O)c2cccnc2Oc2ccc(C)cc21 (centres undefined)	inactive: 1.26%
O=C(Nc1ccc(Br)cc1F)C1CCN(c2nc3ccccc3[nH]2)CC1	inactive: 0.15%
Clc1ccc2c(c1)-c1c(cnc3cc(-c4ccccc4)nn13)CO2	inactive: 20.6%
COc1ccc(N2CCN(C(=O)c3cnn(-c4ccc(F)cc4)c3-n3cccc3)CC2)cc1	inactive: 12.8%
COC(=O)COc1ccc2oc(-c3ccc(OC)cc3)cc(=O)c2c1	inactive: -2.45%
CC1CN(C(=O)N2CCC(C(=O)N3CCN(c4ccccc4)CC3)CC2)c2cc(Cl)ccc2O1 (centres undefined)	inactive: 0.328%
CCOc1ccc2nc(N3CCC(C(=O)Nc4ccccc4CC)CC3)sc2c1	inactive: -5%
CCOc1cc2[nH]c(=O)n(CCCCC(=O)N3CCN(c4ccc(OC)cc4)CC3)c(=O)c2cc1OCC	inactive: -1.22%
CCOc1ccc(C(=O)Nc2nnc(S(=O)(=O)Nc3ccccc3)s2)cc1	inactive: -21.1%
CCCN1CCN(C(=O)Cn2c(-c3cccs3)cc3ccccc32)CC1	inactive: 9.36%
COCCCNC(=O)C1CCN(C(=O)c2cnn(-c3ccccc3)c2-n2cccc2)CC1	inactive: 17.7%
Cc1ccc(NC(=O)c2cnc(N3CCCCC3)c3ccccc23)c(C)c1	inactive: -2.91%
CCCCOc1ccc(C2=NC(c3cccs3)=Nc3ccc(CC)cc3N2)cc1	inactive: -2.91%
CC(C)CC(=O)Nc1nc2nc(-c3ccccc3)cc(=O)n2[nH]1	inactive: 0.186%
COC(=O)c1c(Oc2ccc(OC)cc2)nnc(-c2ccccc2)c1-c1ccccc1	inactive: -9.95%
Cc1ccc2c(CC(=O)Nc3ccc(S(=O)(=O)N4CCCCC4C)cc3)coc2c1 (centres undefined)	inactive: -2.88%
Cc1ccc(CNC(=O)c2cccn2-c2nnc(N3CCCC3)s2)cc1	inactive: -0.166%
COc1cccc(NC(=O)CN2C(=O)CSc3ccc(S(=O)(=O)N4CCCC4)cc32)c1	inactive: -2.96%
Cc1ccc(N2C(=O)NC(NS(=O)(=O)c3ccccc3)(C(F)(F)F)C2=O)cc1C (centres undefined)	inactive: 17.2%
COc1ccc(CNC(=O)CCCn2nc(C)c3sc4ccccc4c3c2=O)cc1OC	inactive: 14.6%

SMILES	activity change, negative = cytotoxicity
CCOc1ccccc1CNC(=O)c1ccc(N2Cc3ccccc3Oc3ncccc32)s1	inactive: -26.5%
Cc1cccc(NC(=O)N2CCN(C(=O)c3nsc4ccccc34)CC2)c1C	inactive: -3.23%
Cc1ccc(NC(=O)CSc2ncc(S(=O)(=O)c3ccc(C(C)C)cc3)c(=O)[nH]2)cc1C	inactive: 19.1%
Cc1ccc(CNC(=O)c2nc(SCc3ccc(F)cc3)ncc2Cl)cc1	inactive: 13.6%
Cc1nn2c(=O)cc(COC(=O)c3cccc(NC(=O)COc4ccccc4Cl)c3)nc2s1	inactive: 12.3%
Cc1ccc(C(=O)c2cn(Cc3cccc(C)c3)c3nc(C)ccc3c2=O)cc1	inactive: -16.3%
COC(=O)c1cc(S(=O)(=O)N2CCN(c3ccc(OC)cc3)CC2)c[nH]1	inactive: -1.49%
COc1ccc(S(=O)(=O)n2nc(C)c(S(=O)(=O)N3CCCCCC3)c2C)cc1	inactive: -8.85%
Cc1cc(C)n2c(Nc3ccc4c(c3)OCCO4)c(-c3ccc(Cl)cc3)nc2n1	inactive: -9.19%
COc1ccc(CNC(=O)CCC2N=C3c4ccccc4N=C(SCc4cccc(F)c4)N3C2=O)cc1 (centres undefined)	inactive: -20.6%
CC(=O)N1CCCc2cc(S(=O)(=O)NCc3cccc(C)c3)ccc21	inactive: -11.8%
CCn1c(=O)c2cc(C(=O)NCCCOC)sc2c2ccccc21	inactive: -20.8%
Cc1cc(C)n(-c2nc3ccccc3nc2Nc2ccc(Cl)cc2Cl)n1	inactive: -2.02%
O=c1c2cnn(-c3ccc(F)cc3)c2ncn1Cc1cccc(Cl)c1	inactive: 4.58%
CCCN(CCC)C(=O)Cn1nnc2sc(-c3ccccc3)cc2c1=O	inactive: 9.69%
O=C(CCCCn1c(=O)c2ccccc2n(Cc2ccccc2Cl)c1=O)NCc1ccc2c(c1)OCO2	inactive: 28.6%
CCNc1ccc(-c2nc(-c3ccccn3)no2)cc1[N+](=O)[O-]	inactive: -2.85%
Cc1cc(NC(=O)COCc2cc(-c3ccc(F)cc3)on2)ccc1Br	inactive: 1.48%
Cc1ccc(Nc2c(-c3ccc(Cl)cc3)nc3sccn23)c(C)c1	inactive: 28.2%
COc1cccc(N2CCN(C(=O)CCCn3c(=O)[nH]c4ccc(Br)cc4c3=O)CC2)c1	inactive: -14.3%
CCOc1ccc(CNC(=O)c2ccc3nc(CC)c(CC)nc3c2)cc1	inactive: 3.02%
Cc1ccc(C)c(NC(=O)N2CCC(CN3CCOCC3)CC2)c1	inactive: -0.984%
CCCn1c2ccccc2c2cnn(CC(=O)N3CCN(c4ccccc4F)CC3)c(=O)c21	inactive: 2.23%
CCOc1ccc(CCNS(=O)(=O)c2c(C)nc3scc(C)n3c2=O)cc1OCC	inactive: -0.132%
